Source: PubChem BioAssay AID493208 (National Center for Advancing Translational Sciences (NCATS), 2011)
Hit rate of the full screen: of about 44,000 compounds, about 340 (0.77%) were called active. Inconclusive results (about 5%) are left out. Calls come from the whole dose curve; as a rule, active = well fitted inhibition curve with a large enough effect; inconclusive = small, poorly fitted or top-dose-only effect; inactive = flat fitted curve, though single readings scatter. The list shows a part of the results.

Experiment: Acumen qHTS Assay for Inhibitors of the mTORC1 Signaling Pathway in MEF (Tsc2-/-, p53-/-) Cells: Sytravon;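 note: plate controls were DMSO for no effect and rapamycin for full effect; nearly all actives have a fitted effect of over 50% in size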
Conditions: phospho-rpS6 immunofluorescence/PI, 24 h; series mostly up to 38.3 µM; activity change, negative = inhibition: at the top concentration
Procedure, shortened: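 Cell-based qHTS: Tsc2-/- p53-/- MEF, 24 h cpd, 37 °C; fix/perm, anti-phospho-S6 Alexa-488 + PI; Acumen 488 nm scan; pS6/PI ratio, % positive cells; rapamycin 7.5 nM = inhibition ref; PI count = viability.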

Activity change, negative = inhibition, inactive:
COc1cc2nc(SCC(=O)Nc3cccc(C)c3)n3nc(-c4ccccc4)nc3c2cc1OC -17.6%
Cc1ccc([N+](=O)[O-])cc1S(=O)(=O)N1CCn2cccc2C1c1ccc(F)c(F)c1 (centres undefined) -1.94%
COc1ccc(-c2nc(Cn3c(SCc4ccc(F)cc4)nc4cccnc43)c(C)o2)cc1 -2.29%
CC(=O)c1cccc(NC(=O)c2ccc3nc(C(C)C)oc3c2)c1 -1.77%
CCOC(=O)c1cc(-c2ccc(OC)cc2)nn1Cc1ccccc1 -3.69%
Cc1ccc(CSc2nc3c(c(=O)[nH]2)C(c2cccc(F)c2F)CC(=O)N3)cc1 (centres undefined) -0.169%
Cc1ccc(C)c(Nc2nnc(-c3ccc(C)c(S(=O)(=O)N4CCCCC4)c3)c3ccccc23)c1 20.9%
COc1ccc(N2CCN(C(=O)c3nn(-c4ccc(C)cc4)c(=O)n(C)c3=O)CC2)cc1 -1.15%
COc1cc2ncc3c(-c4ccccc4)nn(-c4ccc(C)cc4)c3c2cc1OC 9.79%
CC(C)c1ccc(NC(=O)C(Cc2ccccc2)NS(=O)(=O)c2ccc3c(c2)CCC(=O)N3)cc1 (centres undefined) 1.53%
COc1cccc(CNC(=O)CN(C)S(=O)(=O)c2ccc3c(c2)c(=O)n(C)c(=O)n3C)c1 -4.34%
Cn1nnnc1SCCNCc1ccccc1Cl -18.3%
Cc1ccc(OCC(=O)Nc2ccc3nc(SCC(=O)N(C)c4ccccc4)sc3c2)cc1 -2.46%
COc1ccc(NC(=O)c2sc3nc[nH]c(=O)c3c2C)cc1OC -0.452%
N#C/C(=C\c1ccc(-c2ccc(C(=O)O)cc2)o1)c1nc2ccccc2[nH]1 -10.3%
COc1ccc(Cl)cc1NC(=O)Cn1cc(S(=O)(=O)Cc2cccc(Cl)c2)c2ccccc21 -9.49%
CCc1ccccc1Nc1nn2c(=O)c3ccc(C(=O)NCc4ccccc4Cl)cc3nc2s1 0.949%
CCCCOc1ccc(C(=O)N(Cc2nc(-c3ccc(Cl)cc3)no2)C(C)C)cc1 6.3%
Cc1ccc(Cn2c(C)c(CNCc3ccc(OC(C)C)cc3)c(C(=O)O)c2C)cc1 -3.35%
COc1ccc(CC(=O)NCCc2sc(-c3cccc(F)c3)nc2C)cc1 1.03%
CCOc1ccc(CCNC(=O)c2ccc(CS(=O)Cc3ccc(Cl)cc3)o2)cc1 (centres undefined) -7.07%
Cn1c(=O)oc2cc(S(=O)(=O)N3CCC(C(=O)N4CCN(c5cccc(Cl)c5)CC4)CC3)ccc21 -16.5%
CN1CCc2c(sc3c2C(=O)NC(c2ccc(OC(=O)c4ccc(Cl)cc4)cc2)N3)C1 (centres undefined) 3.51%
CC(=O)N1CCc2cc(Br)cc(S(=O)(=O)CCC(=O)NCCc3ccc(Cl)cc3)c21 1.47%
CCc1ccccc1Nc1sc(C(=O)c2ccccc2)c(N)c1S(=O)(=O)c1ccccc1 -8.12%
CCCCN(CC)C(=O)CSc1nc2c(sc3ccccc32)c(=O)n1CCc1ccccc1 -13.6%
CN(C)C(=O)c1ccc(S(=O)(=O)NCc2ccc(Cl)cc2)s1 22.8%
CCc1ccccc1NC(=O)Cn1c(=O)n(-c2ccc(C)cc2)c(=O)c2cc(OC)c(OC)cc21 -0.0262%
COC(=O)c1scc(-c2ccc(C)cc2)c1S(=O)(=O)N1CCN(c2cccc(Cl)c2)CC1 -5.08%
CCN(CCCNC(=O)Cn1ncc2c([nH]c3ccccc32)c1=O)c1cccc(C)c1 -3.68%
Cc1ccc(S(=O)(=O)c2nc(-c3cccs3)oc2N2CCC(C)CC2)cc1 -13.8%
Cn1c(=O)sc2cc(NS(=O)(=O)c3ccc(C(C)(C)C)cc3)ccc21 -0.025%
CC(=O)N1CCc2c(sc3c2c(=O)n(-c2ccccc2C)c(=O)n3CC(=O)Nc2ccccc2)C1 3.16%
Cc1c(C(=O)Nc2c(F)cccc2F)sc2ncn(Cc3ccccc3F)c(=O)c12 -4.18%
COc1ccc(C(=O)NCc2cn3ccc(C)cc3n2)cc1 -0.127%
CC(C)CC(=O)NC1CC(=O)N(c2ccc3c(c2)OCCO3)C1 (centres undefined) -8.83%
CCCCNC(=O)CSc1nc2cc3c(cc2c(=O)n1CCCC(=O)NCc1ccc(OC)cc1)OCO3 0.0373%
CN(Cc1ccccc1)c1nc2c(S(=O)(=O)c3cccc(Cl)c3)nnn2c2ccsc12 -0.234%
CCC1CN(S(=O)(=O)c2cc(-c3cc(C)no3)ccc2OC)c2cc(Cl)ccc2O1 (centres undefined) -8.8%
COC(=O)c1ccccc1NC(=O)NCc1ccc2c(c1)CCN2C(=O)c1ccccc1 -16.7%
O=C1CN(C(=O)c2ccc(S(=O)(=O)N3CCCC3)cc2)C(c2ccc(F)cc2)c2cc(Br)ccc2N1 (centres undefined) -16.4%
O=S(=O)(NCCc1csc2nc(-c3ccc(Cl)cc3)nn12)c1cccs1 -15.6%
Cc1ccc2c(c1)N(C(=O)N1CCC(C(=O)Nc3cccc(F)c3)CC1)CCO2 13.5%
O=c1c2oc3ccccc3c2n(Cc2ccccc2Cl)c(=O)n1Cc1ccc2c(c1)OCO2 3.4%
CCc1ccccc1NC(=O)CN(c1cc(C(F)(F)F)ccc1Cl)S(=O)(=O)c1ccccc1 -8.83%
COc1cc(Nc2nc3c(S(=O)(=O)c4ccccc4)nnn3c3ccc(Cl)cc23)cc(OC)c1 -0.3%
Cc1ccc2c(c1)N(C(=O)CCC(=O)NCc1ccccc1F)CC(C)O2 (centres undefined) -9.14%
O=C(COc1ccc(Cl)cc1)OCc1cc(=O)n2nc(C3CCCCC3)sc2n1 0%
Cc1cc(C)cc(NC(=O)[C@H]2O[C@@H]3OC(C)(C)O[C@@H]3[C@H]3OC(C)(C)O[C@H]32)c1 -2.1%
CCOC(=O)c1ccc2c(c1)N(Cc1cc(C)ccc1C)C(=O)c1ccccc1S2(=O)=O -2.97%
Cc1ccccc1C(=O)N1CCC(c2nc(-c3ccc(S(=O)(=O)N4CCCC4)cc3)no2)CC1 0.542%
Cc1ccsc1CN(Cc1ccco1)c1cnc(S(C)(=O)=O)nc1C(=O)Nc1ccc(Cl)cc1 -1.21%
Cn1c(=O)oc2cc(S(=O)(=O)CCC(=O)NCc3ccc(Cl)cc3)ccc21 8.96%
Clc1cccc(Nc2ncnc3c2nc2n3CCCCC2)c1 -7.87%
Cc1ccc(NC(=O)N2CC=C(c3c[nH]c4ccccc34)CC2)cc1Cl -14.5%
CC1CCN(C(=O)CN2CC(C)Sc3ccccc32)CC1 (centres undefined) 0.402%
COc1ccc(-c2cn3nc(SCC(=O)Nc4cccc(C)c4C)ccc3n2)cc1 -17.9%
CCOCCn1ccc2c(OCC(=O)Nc3cc(C)cc(C)c3)cccc2c1=O -0.904%
Cc1ccc(NS(=O)(=O)c2ccc(-n3cccn3)cc2)c(Br)c1 2.24%
Cc1cccc(C(=O)Nc2ccc(OCc3cc(=O)n4ccc(C)cc4n3)cc2)c1 -0.843%
COc1ccc(Nc2nc3ccccc3n3c(N)nnc23)cc1 -8.21%
CCCCN(C)C(=O)CCC(=O)NNc1nc2ccccc2c2nc(C)nn12 -5.64%
CCC(Nc1ccc(-c2nc(-c3ccccn3)no2)cc1[N+](=O)[O-])c1ccccc1 (centres undefined) -3.88%
COc1cc2c(cc1OC)C(COc1cc(C)cc(C)c1)N(C(=O)C(C)(C)C)CC2 (centres undefined) 4.9%
Cc1cccc(N2CCn3c2nc2c3c(=O)n(CCCc3ccccc3)c(=O)n2C)c1 -3.39%
COc1cc2c(C(=O)N(C)c3cccc(C(F)(F)F)c3)cn(CC(C)C)c(=O)c2cc1OC -16.4%
Cc1oc(-c2cccc(Cl)c2)nc1Cn1c(SCc2ccc(F)cc2)nc2cccnc21 -6.66%
Cc1ccc(C(c2sc3nc(-c4ccco4)nn3c2O)N2CCN(c3ccc(F)cc3)CC2)cc1 (centres undefined) 0.317%
O=C(CCCCCn1c(=O)c2sccc2n(CC(=O)Nc2ccccc2F)c1=O)NCc1ccc2c(c1)OCO2 -13.9%
CCC(C)OC(=O)/C(C#N)=C/c1ccc(-c2ccc(Br)cc2)o1 (centres undefined) 9.76%
COc1cc(CN(C(=O)COc2ccccc2)c2ccccn2)cc(OC)c1OC -0.563%
Cc1ccc(C2CC(=O)Nc3c2c(C)nn3-c2nc(C)cc(C)n2)c(C)c1 (centres undefined) -2.36%
Cc1cc2n(n1)CCCN2C(=O)Nc1ccccc1C(F)(F)F 1.88%
COC(=O)CN1C(=O)CSc2ccc(S(=O)(=O)Nc3ccc(C)c(Cl)c3)cc21 1.02%
O=C(Cc1ccc(-c2ccccc2)cc1)NCCS(=O)(=O)N1CCN(c2ccccc2F)CC1 0%
COc1cccc(NC(=O)C2CCCN(c3ncnc4onc(C)c34)C2)c1 (centres undefined) 4.06%
O=C(Nc1ccccc1C(=O)N1CCCCC1)c1nsc2ccccc12 0%
CCCCCOc1ccc(/C=C/C(=O)Nc2sc3c(c2C(=O)OCC)CCC3)cc1OC 3.75%
CNC(=O)c1cnc2sc(N3CCC(C)CC3)nn2c1=O -3.5%
COc1ccc(NC(=O)CNC(=O)Cn2ccc3ccccc3c2=O)cc1OC -3.36%
O=C(Nc1ccc(F)c(F)c1)c1cc(S(=O)(=O)NC2CCCC2)ccc1F 0%
Cc1cccc(N2CCN(CCCNc3ncnc4onc(-c5ccc(F)cc5)c34)CC2C)c1 (centres undefined) -9.43%
COc1cccc(C(=O)Nc2ccc3nc(SCCOc4ccccc4)sc3c2)c1 -10.7%
O=C(CCNS(=O)(=O)c1ccc2c(c1)CCN2C(=O)C1CC1)Nc1ccc(OC(F)(F)F)cc1 -18.9%
CCC(C)NC(=O)Cn1ccc2cc(S(=O)(=O)N3CCCCCC3)ccc21 (centres undefined) 0.686%
CCc1ccc2oc(-c3cc(NC(=O)c4cccs4)ccc3Cl)nc2c1 2.5%
Cc1ccc(CCNC(=O)c2ccc3c(c2)N(Cc2cccc(F)c2)C(=O)c2ccccc2S3)cc1 -4.24%
COc1cccc2cc(C(=O)Nc3ccc(C)cc3)c(=O)oc12 -0.691%
CCOC(=O)c1ccc(NC(=O)C2=C(C)C(=O)OC23CCN(C(C)C)CC3)cc1 7.3%
CCn1cc(S(=O)(=O)c2ccccc2)c(=O)c2cc(F)c(F)cc21 -10.6%
Cc1ccc(CN(C(=O)COc2ccc(F)cc2)C2CCS(=O)(=O)C2)o1 (centres undefined) 2.78%
CCOc1ccc(N(CC)C(=O)Cn2cnc3sc(C)c(S(=O)(=O)N4CCN(c5ncccn5)CC4)c3c2=O)cc1 -16.5%
CC(C)CCNC(=O)c1ccc2nc(Cc3ccccc3)oc2c1 -7.37%
Cc1cc(NS(=O)(=O)c2ccc(NC(=O)COc3cc(C)c(Br)cc3C(C)C)cc2)no1 0.668%
